# Reference: patent publication US7537764
# B1: SC04-274 (scFv)
# scFv: QVQLVQSGAEVKKPGESLKISCKGSGYSFTSYWIGWVRQMPGKGLEWMGIIYPGDSDTRYSPSFQGQVTISADRSISTAYLQWSSLKASDTAMYYCARLRGPYYDFWNGYRETHDAFNVWGQGTTVTVSSGTGGSGGTGSGTGGS[skipping about 100 residues]FGGGTKVEIKR
# Target: T1, recombinantly expressed purified soluble WNV E protein (truncated form, strain 382-99) (West Nile virus strain 382-99, UniProt Q9Q6P4 291-696)
# T1 construct: also called recombinant WNV-E protein; truncated E protein
# T1 sequence: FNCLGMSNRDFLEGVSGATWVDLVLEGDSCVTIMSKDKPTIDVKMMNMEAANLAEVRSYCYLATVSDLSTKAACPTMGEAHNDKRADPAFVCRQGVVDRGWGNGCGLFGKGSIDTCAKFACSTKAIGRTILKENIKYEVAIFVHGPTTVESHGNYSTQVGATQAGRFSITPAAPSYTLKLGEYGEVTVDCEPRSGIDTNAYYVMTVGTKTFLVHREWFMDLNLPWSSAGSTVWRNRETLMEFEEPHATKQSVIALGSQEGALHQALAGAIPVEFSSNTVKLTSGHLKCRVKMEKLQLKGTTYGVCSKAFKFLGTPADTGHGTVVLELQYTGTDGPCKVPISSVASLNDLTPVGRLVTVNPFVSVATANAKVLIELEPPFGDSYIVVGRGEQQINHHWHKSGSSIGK
# Experiment: phage ELISA on coated recombinant soluble WNV E protein
binder,measurement,value
B1,OD 492 nm,0.496 OD
